From paper PMC12404741 come the findings set out here.

B1: GPR31: N5Q (protein)
parent chain: MPFPNCSAPSTVVATAVGVLLGLECGLGLLGNAVALWTFLFRVRVWKPYAVYLLNLALADLLLAACLPFLAAFYLSLQAWHLGRVGCWALHFLLDLSRSVGMAFLAAVALDRYLRVVHPRLKVNLLSPQAALGVSGLVWLLMVALTCPGLLISEAAQNSTRCHSFYSRADGSFSIIWQEALSCLQFVLPFGLIVFCNAGIIRALQKRLREPEKQPKLQRAQALVTLVVVLFALCFLPCFLARVLMHIFQNLGSCRALCAVAHTSDVTGSLTYLHSVLNPVVYCFSSPTFRSSYRRVFHTLRGKGQAAEPPDFNPRDSYS
B2: GPR31: DNQ (protein)
parent chain: B1 parent chain
B3: GPR31: N158Q (protein)
parent chain: B1 parent chain

A short description of the series: immunofluorescence colocalisation with Na/K ATPase, Huh7. The following applies: glycan lost; control: GPR31-WT.
For the protein B1, the localisation_or_trafficking result is on record as “decreases”.
As to B2, the localisation_or_trafficking entry was “decreases”.
For B3 the value was “no change”.
